In all, about 280,000 compounds went through this assay and about 2,600 (0.93%) were called active. About 8% were inconclusive and are not listed. The call rests on the fitted dose curve; in most records, active means well fitted curve in the direction sought with a large enough effect; inconclusive means small, poorly fitted or top-dose-only effect; inactive means flat fitted curve, though single readings scatter. The entries are a selection whose mix differs from that of the whole data set.
test: Counterscreen qHTS for Inhibitors of Tau Fibril Formation, Fluorescence Polarization; conditions: tau K18 P301L (four-repeat tau fragment) Alexa594 fluorescence, heparin fibrillization; series mostly up to 57.7 µM; activity change, negative = decrease: at the top concentration; further: nearly all actives have a fitted effect of over 55% in size
Source text: NIH Molecular Libraries Probe Production Network [MLPCN]
NIH Chemical Genomics Center [NCGC]
Assay Provider: Carlo Ballatore, University of Pennsylvania
The microtubule-associated protein tau is an abundant protein in the axons of neurons that stabilizes microtubules. With its ability to modulate microtubule dynamics, tau contributes directly or indirectly, to key structural and regulatory cellular functions. Particularly important is the influence tau exerts on axonal transport, which allows signaling molecules, trophic factors and other essential cellular constituents to travel along the axons. Under pathological conditions, tau becomes sequestered into insoluble aggregates called neurofibrillary tangles. This phenomenon is believed to have pathological consequences by promoting axonal transport deficits that ultimately lead to synaptic dysfunction and neuronal loss. To identify inhibitors of tau aggregation, a heparin-induced tau fibril formation assay was used that employed a recombinantly expressed fragment of tau, K18 (Q242-E372), bearing a P301L mutation (Gustke et al. 1994; Hong et al. 1998). […] Total fluorescence (555 nm excitation and 632 nm emission) was measured to identify fluorescent or absorbent compounds at this wavelength. Such compounds may be artifacts that interfere with the Alexa 594 Tau fluorescence polarization assay.
Gustke, N., B. Trinczek, et al. (1994). "Domains of tau protein and interactions with microtubules." Biochemistry 33(32): 9511-22.
Hong, M., V. Zhukareva, et al. (1998).
Li, W. and V. M. Lee (2006). "Characterization of two VQIXXK motifs for tau fibrillization in vitro." Biochemistry 45(51): 15692-701.
von Bergen, M., S. Barghorn, et al. (2001). "Mutations of tau protein in frontotemporal dementia promote aggregation of paired helical filaments by enhancing local beta-structure." J Biol Chem 276(51): 48165-74.
NCGC Assay Protocol Summary:
For screening, 2 uL/well human K18 P301L (15 uM unlabeled and 0.24 uM Alexa 594-labeled tau final concentrations) in reagent buffer (100 mM sodium acetate pH 7) was dispensed into black solid 1536-well plates (Grenier) using a solenoid-based dispenser. Following transfer of 23 nL compound or DMSO vehicle by a pin tool, 2 uL/well heparin (20 uM final concentration) in reagent buffer was added and the plate centrifuged 15 s at 1000 RPM. Plates were incubated 6 hr at 37 C and then 1 uL/well ThT (30 uM final concentration) was added. After a 1 hr ambient incubation, the plates were read by an Envision (Perkin Elmer) to monitor Alexa 594 FP (555 nm excitation and 632 nm emission).
Keywords: NIH Roadmap, MLPCN, MLI, MLSMR, NCGC, qHTS, tau, tauopathies, Alzheimer's disease, fibril, neurodegeneration, aggregation
On the % scale 0 is the no-effect control and ±100 the full control effect; potency means the concentration at half of the fitted maximal effect; tags describe the fitted curve by direction and shape or compound fluorescence and quenching.

SMILES | Potency | activity change, negative = decrease
O=c1[nH]c2cc(C(F)(F)F)ccc2n1-c1cc(C(F)(F)F)ccc1O | inactive | –
Cc1ccc(C(=O)N/C(=C/c2ccco2)C(=O)NCCc2c[nH]c3ccccc23)cc1 | – | inactive: -10.1%
COc1ccc(-c2csc3nc(-c4ccccc4)oc(=O)c23)cc1OC | – | inactive: 5.23%
O=C(Nc1cccc2ccccc12)/C(=C/c1cccc([N+](=O)[O-])c1)NC(=O)c1cccs1 | – | inactive: -29.8%
Oc1ccc(/C=N/N=C(c2ccccc2)c2ccccc2)c(O)c1O | active: 12.6 µM [quencher] | –
COc1ccc(NC(=O)c2ccc(-c3ccc([N+](=O)[O-])cc3)o2)cc1OC | active: 11.2 µM [quencher] | –
O=C(Nc1ccc(N2CCCC2)c(S(=O)(=O)Nc2cccc(C(F)(F)F)c2)c1)c1cccs1 | active: 10 µM [quencher] | –
NC(Cc1cc(I)c(Oc2ccc(O)c(I)c2)c(I)c1)C(=O)O (stereo not given) | – | inactive: -24.4%
COc1ccc([C@@H](C)C(=O)c2ccc(O)cc2O)cc1 | – | inactive: -26.7%
c1ccc(-c2nc[nH]c2-c2ccccc2)cc1 | – | inactive: -6.93%
Cc1ccc2c(c1)sc1nc(=O)n(-c3ccc(Cl)c(Cl)c3)c(=O)n12 | – | inactive: -24.9%
O=c1oc2c(O)c(O)cc3c(=O)oc4c(O)c(O)cc1c4c23 | – | inactive: -31%
CCOC(=O)C1CCCN(S(=O)(=O)c2ccc(F)c(C(=O)Nc3ccc(F)c(F)c3)c2)C1 (stereo not given) | – | inactive: -22.3%
CCN(Cc1ccccc1)C(=O)c1nn(-c2ccc(OC)cc2)c(=O)c2c1c1ccccc1n2C | – | inactive: -19.2%
Nc1c2ccccc2nc2ccccc12 | inactive | –
N[C@@H](Cc1cc(I)c(Oc2ccc(O)c(I)c2)c(I)c1)C(=O)O | – | inactive: -5.97%
Cc1cc(C)cc(NC(=O)Nc2cc(S(=O)(=O)N(C)C)ccc2C)c1 | active: 15.8 µM [quencher] | –
CCCOC(=O)c1ccc(Oc2cn[nH]c2-c2ccc(O)cc2O)cc1 | active: 5.01 µM [quencher] | –
COC(=O)C1=C(C)NC(C)=C([N+](=O)[O-])C1c1ccccc1C(F)(F)F (stereo not given) | inactive | –
COc1cc(-c2nc3cccc(C)n3c2Nc2ccc3c(c2)OCCO3)ccc1O | active: 17.8 µM [quencher] | –
O=Cc1c2[nH]c3ccccc3c2cc2[nH]c3ccccc3c12 | inactive | –
Cc1cncn1CCc1nc2c3ccccc3nc(SCC(=O)Nc3cccc(Cl)c3)n2n1 | – | inactive: -0.435%
CNC(=O)c1cc(Nc2nnc(-c3ccc(O)cc3)c3ccccc23)ccc1OC | – | inactive: -17.5%

SMILES | Potency | activity change, negative = decrease
O=C1OCCN1C(=O)[C@H]1[C@H](c2ccc(F)cc2)C(c2ccc(F)cc2)=NN1c1ccc(Br)cc1 | – | inactive: -3.81%
Cc1cc(N2CCOCC2)nc2ccc(NC(=S)NCc3ccc4c(c3)OCO4)cc12 | active: 14.1 µM [quencher] | –
CCCCN(CC)CCNC(=O)c1nn(-c2ccc(OC)cc2)c(=O)c2c1c1ccccc1n2C | – | inactive: -21.2%
COc1ccc(COC(=O)N/N=C2/C[C@@H](O)[C@@H](O)[C@@H]3[C@@H]4C(=O)N(c5cccc(Oc6ccccc6)c5)C(=O)[C@H]4CC[C@H]23)cc1 | – | inactive: -6.58% [at 11.6 µM]
Oc1ccc(-c2csc(-c3ccccc3)n2)cc1O | active: 15.8 µM [quencher] | –
O=C1OC(c2ccc(O)cc2)(c2ccc(O)cc2)c2ccccc21 | – | inactive: -28.2%
CC(/C=N/NC(=O)c1cccs1)=C\c1ccccc1 | – | inactive: -23.4%
Nc1ccccc1C(=O)/C=C/c1ccc2c(c1)OCO2 | inactive | –
O=C(/C=C/c1cccc([N+](=O)[O-])c1)Nc1cccc(NC(=O)c2cccs2)c1 | active: 12.6 µM [quencher] | –
Cc1ccc(C(=O)N/C(=C/c2cccs2)C(=O)NCCc2c[nH]c3ccccc23)cc1 | – | inactive: 10.2%
COc1cc(C2NC(=O)C(C#N)=C(Nc3cccc(C)c3)S2)ccc1O (stereo not given) | – | inactive: -10.2%
C[C@](N)(Cc1ccc(O)cc1)C(=O)O | inactive | –
COc1ccc2c(c1)O[C@H](c1ccc3c(c1)OCO3)[C@@H](OC(=O)Nc1ccc(C)c(Br)c1)C2=O | – | inactive: -23.1%
O=C(CSc1nc2c([nH]c3ccccc32)c(=O)n1-c1ccc(F)cc1)NCc1ccco1 | – | inactive: -17.5%
CCOC(=O)/C(C#N)=C/c1c[nH]c2ccccc12 | – | inactive: 3.38%
Oc1cc2c(cc1O)[C@@H](c1ccccc1)CNCC2 | – | inactive: -4.53%
Cc1c(Cl)cccc1Nc1ccccc1C(=O)O | – | inactive: -10.1%
O=C(c1cc2c(s1)-c1ccccc1OC2)N1CCN(c2ccccc2)CC1 | – | inactive: 4.33%
O=c1cc(-c2cc(O)c(O)c(O)c2)oc2cc(O)cc(O)c12 | active: 15.8 µM [quencher] | –
CCOC(=O)c1sc(NC(=O)Nc2ccccc2Cl)cc1C | active: 8.91 µM [quencher] | –
Cc1ccc2[nH]c(-c3cccc(N)c3)cc2c1 | active: 14.1 µM [quencher] | –
Oc1ccc(/C=N/Nc2ccnc3cc(Cl)ccc23)cc1O | active: 15.8 µM [quencher] | –

— PubChem BioAssay AID1463 (National Center for Advancing Translational Sciences (NCATS), 2008)
